Laboratory results: the supplement of paper PMC8728848
Some of the results follow.

Experiments:
Experiment in all cases: glycan array binding signal (z-score within array); higher = stronger binding
Conditions in all cases: glycan notation: IUPAC condensed, linker removed
[1] = target: Neu5Ac(a2-3)Gal(b1-4)GlcNAc(b1-3)Gal(b1-4)GlcNAc(b1-2)Man(a1-3)[Neu5Ac(a2-3)Gal(b1-4)GlcNAc(b1-3)Gal(b1-4)GlcNAc(b1-2)Man(a1-6)]Man(b1-4)GlcNAc(b1-4)GlcNAc
How it was run: (§1)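 Glycan array data came from 3228 arrays in the Consortium for Functional Glycomics database, and only arrays with an available protein sequence were kept. Glycan names were put into IUPAC-condensed notation, and columns mapping to the same glycan were averaged. The binding signal is a within-array Z-score, averaged across arrays of one protein sequence run at different concentrations or buffers and across linkers. A negative Z-score can be read as non-binding.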

[2] = target: Neu5Ac(a2-3)Gal(b1-4)GlcNAc(b1-3)Gal(b1-4)GlcNAc(b1-3)Gal(b1-4)GlcNAc
How it was run: as §1

[3] = target: Neu5Ac(a2-3)Gal(b1-4)GlcNAc(b1-3)Gal(b1-4)GlcNAc(b1-3)Gal(b1-4)GlcNAc(b1-2)Man(a1-3)[Neu5Ac(a2-3)Gal(b1-4)GlcNAc(b1-3)Gal(b1-4)GlcNAc(b1-3)Gal(b1-4)GlcNAc(b1-2)Man(a1-6)]GalNAc
How it was run: as §1

[4] = target: Neu5Ac(a2-3)Gal(b1-4)GlcNAc(b1-3)Gal(b1-4)GlcNAc(b1-3)GalNAc
How it was run: as §1

[5] = target: Neu5Ac(a2-3)Gal(b1-4)GlcNAc(b1-3)Gal(b1-4)GlcNAc(b1-3)[Neu5Ac(a2-3)Gal(b1-4)GlcNAc(b1-3)Gal(b1-4)GlcNAc(b1-6)]GalNAc
How it was run: as §1

[6] = target: Neu5Ac(a2-3)Gal(b1-4)GlcNAc(b1-3)Gal(b1-4)GlcNAc(b1-6)[Gal(b1-3)]GalNAc
How it was run: as §1

[7] = target: Neu5Ac(a2-3)Gal(b1-4)GlcNAc(b1-3)Gal(b1-4)[Fuc(a1-3)]GlcNAc
How it was run: as §1

[8] = target: Neu5Ac(a2-3)Gal(b1-4)GlcNAc(b1-3)GalNAc
How it was run: as §1

[9] = target: Neu5Ac(a2-3)Gal(b1-4)GlcNAc(b1-3)[Neu5Ac(a2-3)Gal(b1-4)GlcNAc(b1-6)]GalNAc
How it was run: as §1

[10] = target: Neu5Ac(a2-3)Gal(b1-4)GlcNAc(b1-6)GalNAc
How it was run: as §1

[11] = target: Neu5Ac(a2-3)Gal(b1-4)GlcNAc(b1-6)[Gal(b1-3)]GalNAc
How it was run: as §1

[12] = target: Neu5Ac(a2-3)Gal(b1-4)GlcNAc(b1-6)[Neu5Ac(a2-3)Gal(b1-3)]GalNAc
How it was run: as §1

[13] = target: Neu5Ac(a2-3)Gal(b1-4)GlcNAc6S
How it was run: as §1

[14] = target: Neu5Ac(a2-3)Gal(b1-4)[Fuc(a1-3)]GlcNAc
How it was run: as §1

[15] = target: Neu5Ac(a2-3)Gal(b1-4)[Fuc(a1-3)]GlcNAc(b1-2)Man
How it was run: as §1

[16] = target: Neu5Ac(a2-3)Gal(b1-4)[Fuc(a1-3)]GlcNAc(b1-3)Gal
How it was run: as §1

[17] = target: Neu5Ac(a2-3)Gal(b1-4)[Fuc(a1-3)]GlcNAc(b1-3)Gal(b1-4)GlcNAc
How it was run: as §1

[18] = target: Neu5Ac(a2-3)Gal(b1-4)[Fuc(a1-3)]GlcNAc(b1-3)Gal(b1-4)[Fuc(a1-3)]GlcNAc(b1-3)Gal(b1-4)[Fuc(a1-3)]GlcNAc
How it was run: as §1

[19] = target: Neu5Ac(a2-3)Gal(b1-4)[Fuc(a1-3)]GlcNAc(b1-3)GalNAc
How it was run: as §1

[20] = target: Neu5Ac(a2-3)Gal(b1-4)[Fuc(a1-3)]GlcNAc(b1-6)[Gal(b1-3)]GalNAc
How it was run: as §1

[21] = target: Neu5Ac(a2-3)Gal(b1-4)[Fuc(a1-3)]GlcNAc(b1-6)[Neu5Ac(a2-3)Gal(b1-3)]GalNAc
How it was run: as §1

[22] = target: Neu5Ac(a2-3)Gal(b1-4)[Fuc(a1-3)]GlcNAc6S
How it was run: as §1

[23] = target: Neu5Ac(a2-3)Gal6S(b1-4)GlcNAc
How it was run: as §1

B1: InvD YPIII (Yersinia pseudotuberculosis), B1JSC0 (protein)
chain: MIKYFSFFKKPEPIVGILPNRQSHHILPTHIRRVAWGTLLLQLFIPLSVSFSPAIAAMKASKADTMVSYSSTEPYVLGSGETVAMVAKKYGITVDELKKINIYRTFSRPFTALTTGDEIDIPRKASPFSVDNNKDNRLSVENTLAGHAVAGATALSNGDVAKSGERMVRSAASNEFNNSAQQWLSQFGTARVQLNINDDFHLDGSAADVLIPLYDNEKSILFTQLGARNKDSRNTVNMGAGVRTFQGNWMYGANTFFDNDLTGKNRRIGVGAEAWTDYLKLSANNYFGITDWHQSRDFIDYNERPANGYDLRAEAYLPSYPQLGGKAMYEKYRGDDVALFGKDNRQKNPHAITAGVNYTPIPLVTIGAEHRAGKGGQNDSNINFQLNYRLGETWQSHIDPSAVAASRTLAGSRYDLVERNNHIVLDYQKQNLVRLSLPDSLAGDPFSQLSVTAQVTATHGLERIDWQSAELMAAGGVLKQTSKNGLEITLPEYQMNRTGGNSYILNAIAYDTQGNASSQASMLITVNAQKINIANSTLVAVPINIEANNSDTSVVTLTLKDDNNIPVTGQDVTFLSPLGTLSAMTDSGNGVYTATLTAGTVSGTTAVSSNINGSALDMTPATVTLNGNSGELSITHSMLVAAPVNIEANGSDTSVVTLTLRDSNNNPVTGQTVTFAGTLGTLGAVTEGSSGVYTATLTAGIMVGTSSITASVNSTALGVTPATVTLNGDSGNLSTTNSTLVAAPVNIEANSSDTSVVTLTLRDNNNNPVTGQTVVFTSTLGTLGNVTEQASGVYTATLTAGTVSGVASLSVSVGGNALGVTPATVTLNGDSGNLSTTNSTLVAAPVNIEANSSDTSVVTLTLRDNNNNPVTGQTVNFAGTLGTLGTVSEGSSGVYTTTLTAGTVAGVASLSVNVGGNALGVTPATVTLNGNSGNLSATNSTLVAAPVNIEANSSDTSVVTLTLRDNNNNPVTGQTVAFTSTLGTLGNVTEQASGVYTATLTAGTVSGVASLSVSVNSNALGVTPATVTLNGDSGNLSTTNSTLVAAPVNIEANSSDTSVVTLTLRDNNNNPVTGQTVAFTSTLGTLGNVTEQASGLYTATLTAGTVSGVASLSVNVGGNALGVTPATVTLNGDSGNLSATNSTLVAAPVNIEANSSDTSVVTLTLRDNNNNPVTGQTVAFTSTLGTLGNVTEQASGLYTATLTAGTVSGVASLSVNVGGTALGVTPATVTLNGDSGNLSTTNSTLVAAPVNIEANSSDTSVVTLTLRDNNNNPVTGQTVAFTSTLGTLGNVTEQASGLYTATLTAGTVSGVASLSVSVNSTALGVTPATVTLNGDSGNLSTTNSTLVAAPVNIEANSSDTSVVTLTLRDNNNNPVTGQTVAFTSTLGTLGNVTEQASGVYTATLTAGTVAGVASLSVNVGGNALGVTPATVTLNGDSGNLSTTNSTLVAAPVNIEANSSDTSVVTLTLRDNNNNPVTGQTVAFTSTLGTLGNVTEQASGVYTATLTAGTVSGVASLSVSVGSSALGVTPATVTLNGDSGNLSTTNSTLVAAPVNIEANNSDTSVVTLTLRDNNNNPVTGQTVAFTSTLGTLGNVTEQASGVYTATLTAGTVSGVASLSVSVNSNALGVTPATVTLNGDSGNLSTTNSTLVAAPVNIEANSSDTSVVTLTLRDNNNNPVTGQTVVFTSTLGTLGNVTEQASGLYTATLTAGTVSGVASLSVSVGGNALGVTGNITLAPGALDAARSILAVNKPSINADDRIGSTITFTAQDAQGNAITGLDIAFMTDLENSQIMTLVDHNDGTYTANINGTQTGIANIAVQSSGATIAGLAATMVTITPGAWNTTQATPVMTVALPITTCQSSSGVYKRYYIGIVTHELYDNYGNEISGILTYNLGAGRYTTVTSQNSSVSGSNGLTRRSNSPVSHFILTSDAYTSQAACYAERIANVNVTITVTAITDDFKTSAVNKVFILGTGSN
- glycan array binding signal (z-score) [1]: -0.107
- glycan array binding signal (z-score) [2]: 0.261
- glycan array binding signal (z-score) [3]: 0.604
- glycan array binding signal (z-score) [4]: 0.393
- glycan array binding signal (z-score) [5]: 0.009
- glycan array binding signal (z-score) [6]: -0.126
- glycan array binding signal (z-score) [7]: -0.019
- glycan array binding signal (z-score) [8]: -0.259
- glycan array binding signal (z-score) [9]: 0.009
- glycan array binding signal (z-score) [10]: 0.218
- glycan array binding signal (z-score) [11]: 0.162
- glycan array binding signal (z-score) [12]: -0.125
- glycan array binding signal (z-score) [13]: -0.166
- glycan array binding signal (z-score) [14]: -0.267
- glycan array binding signal (z-score) [15]: -0.036
- glycan array binding signal (z-score) [16]: -0.145
- glycan array binding signal (z-score) [17]: -0.037
- glycan array binding signal (z-score) [18]: -0.211
- glycan array binding signal (z-score) [19]: -0.131
- glycan array binding signal (z-score) [20]: 0.032
- glycan array binding signal (z-score) [21]: -0.245
- glycan array binding signal (z-score) [22]: -0.17
- glycan array binding signal (z-score) [23]: -0.256
